Measurements taken from paper doi:10.1101/2021.12.06.471412 (bioRxiv, 2021).

Target: T1, purified human TRAP1 (human, UniProt Q12931 60-704)
T1 sequence: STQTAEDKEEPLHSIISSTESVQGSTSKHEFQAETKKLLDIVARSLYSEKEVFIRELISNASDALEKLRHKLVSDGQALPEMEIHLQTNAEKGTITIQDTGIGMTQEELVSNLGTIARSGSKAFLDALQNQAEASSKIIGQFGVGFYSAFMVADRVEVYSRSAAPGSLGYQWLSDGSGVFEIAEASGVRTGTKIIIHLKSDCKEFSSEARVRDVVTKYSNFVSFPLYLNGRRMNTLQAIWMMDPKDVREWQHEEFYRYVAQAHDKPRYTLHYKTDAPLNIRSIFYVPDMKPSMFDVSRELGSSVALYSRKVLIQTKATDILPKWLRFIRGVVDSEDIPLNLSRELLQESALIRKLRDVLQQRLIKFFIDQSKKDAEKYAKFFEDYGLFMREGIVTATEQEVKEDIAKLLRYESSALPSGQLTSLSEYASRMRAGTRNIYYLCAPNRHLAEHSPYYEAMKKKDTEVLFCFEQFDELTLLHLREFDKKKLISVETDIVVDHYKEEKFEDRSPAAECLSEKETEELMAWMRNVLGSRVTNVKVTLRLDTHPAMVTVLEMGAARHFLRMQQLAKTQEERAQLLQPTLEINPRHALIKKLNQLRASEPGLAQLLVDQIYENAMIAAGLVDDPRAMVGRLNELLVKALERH
Assay: far-Western, overlay or dot blot

B1: F-ATP synthase subunit β (bovine heart) (natural protein)
chain: not shown
B1: binds.
